# Laboratory results: PubChem BioAssay AID2546 (National Center for Advancing Translational Sciences (NCATS), 2010)
# Out of some 310,000 compounds screened, about 11,000 (3.5%) were called active. The shares of active, inactive and inconclusive entries below differ from those in the screen. The call rests on the fitted dose curve; in most records, active means well fitted inhibition curve with a large enough effect; inconclusive means small, poorly fitted or top-dose-only effect, or effect the other way; inactive means flat fitted curve, though single readings scatter. No potency is given beside an inconclusive call; the fits are too rough.
# Assay: VP16 counterscreen qHTS for inhibitors of ROR gamma transcriptional activity;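 further: Gal4-VP16 expression switched on by copper sulfate through the metallothionein promoter; nearly all actives have a fitted effect of over 50% in size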
# Settings: Drosophila S2 Gal4-VP16 UAS-luciferase, luminescence, 20 h; activity, negative = inhibition: at 53.6 µM (top of the series)
# On the % scale 0 is the no-effect control and ±100 the full control effect; potency means the concentration at half of the fitted maximal effect; tags describe the fitted curve by direction and shape.
Structure (SMILES),"activity, negative = inhibition",Potency
CCOC(=O)N1CCC(NC(=S)Nc2ccc3nc(N4CCN(CC)CC4)cc(C)c3c2)CC1,inactive: -16.9%,–
CC1=C([N+](=O)[O-])C(c2cccc(Br)c2)C2=C(N1)c1ccccc1C2=O (stereo not given),–,"inconclusive [inhibitor, partial curve]"
CC(C)C[C@H](NC(=O)c1nc[nH]c1C(=O)N1CCN(c2ccccc2)CC1)C(=O)OCc1ccccc1,–,"inconclusive [inhibitor, single point]"
NC(N)=N/N=C/c1ccc(OCc2ccccc2)cc1,–,active: 10 µM
CC(=O)c1c(C)[nH]c(C(=O)Nc2ccc(C)cn2)c1C,–,"inconclusive [inhibitor, full curve, poor fit]"
O=C(O)c1ccc(N/N=C/c2ccc3nccnc3c2)cc1,–,active: 0.316 µM
COCc1ccc(CN2CCC(n3nccc3NC(=O)CCOc3ccccc3)CC2)o1,–,"inconclusive [inhibitor, full curve]"
C=CCn1c(SCC(C)=O)nnc1-c1cc(-c2ccccc2)sc1N,–,"inconclusive [inhibitor, single point]"
COC(=O)C1=C(C)N(Cc2ccc(C)cc2)C(=O)/C1=C\c1cc(OC)c(OC)c(OC)c1,–,"inconclusive [inhibitor, single point]"
O=C(CNc1ccccc1Cl)c1ccc(Br)cc1,–,"inconclusive [inhibitor, single point]"
COc1cccc(Oc2coc3cc(OC(=O)N4CCOCC4)ccc3c2=O)c1,–,"inconclusive [inhibitor, single point]"
COC(=O)N1CCC2(CCN(Cc3ccc(C#N)cc3)CC2)CC1,inactive: -26.8%,–
COc1ccccc1N1C(=O)[C@@H]2[C@H](C1=O)[C@H](C(=O)c1ccc(OC(C)=O)cc1)N1N=CC=C[C@@H]21,inactive: 5.96%,–
CCOC(=O)N1CCc2c(sc(NC(=O)c3ccc(Cl)s3)c2C(N)=O)C1,–,"inconclusive [inhibitor, single point]"
Cc1ccc2c(NC(=S)NC(=O)c3ccccc3)cccc2n1,–,"inconclusive [inhibitor, single point]"
Oc1ccc(CN2CCN(c3ccccc3)CC2)c2cccnc12,–,active: 1 µM
Fc1ccc(/C=N/Nc2cc(N3CCOCC3)ncn2)cc1,–,"inconclusive [activator, full curve, poor fit]"
O=C1ON=C(c2ccc([N+](=O)[O-])cc2)/C1=C/c1ccccc1O,–,"inconclusive [inhibitor, single point]"
Cc1c(NC(=S)NCc2ccc(F)cc2)cccc1[N+](=O)[O-],–,active: 15.8 µM
CC(=O)Nc1ccc(NC(=O)c2nc(-c3ccccc3)oc2C)cc1,inactive: 0.172%,–
Fc1ccc(NC(=S)NCc2ccc3c(c2)OCO3)cc1,–,"inconclusive [inhibitor, single point]"
CS(=O)(=O)N1CCN(c2ccccc2NC(=O)c2ccc([N+](=O)[O-])o2)CC1,inactive: 3.19%,–
COc1ccc(Cl)cc1-c1nc(SCC(=O)N(C)C)n[nH]1,inactive: -1.4%,–

Structure (SMILES),"activity, negative = inhibition",Potency
COc1cc(/C=N/NC(=O)C2=NNC(=O)C2C)ccc1O (stereo not given),–,"inconclusive [inhibitor, single point]"
Cc1ccc(C(c2nnnn2C2CCCC2)N2c3ccccc3CC2C)cc1 (stereo not given),–,"inconclusive [inhibitor, single point]"
Cc1cc(C)cc(OCC(=O)N2N=C(C(F)(F)F)CC2(O)C(C)(C)C)c1 (stereo not given),–,"inconclusive [inhibitor, single point]"
CN(C)S(=O)(=O)N1CCN(CC(O)COc2ccc(C(=O)c3ccccc3)cc2)CC1 (stereo not given),–,"inconclusive [inhibitor, single point]"
CCc1ccc(-c2cc(C(F)(F)F)n3nc(C(=O)Nc4cnn(Cc5ccc(C)cc5)c4)cc3n2)s1,–,"inconclusive [inhibitor, partial curve]"
CCOc1ccc(-c2[nH]ncc2Oc2ccccc2OC)c(O)c1,–,"inconclusive [inhibitor, single point]"
Cc1cnc(NC(=O)c2ccc(-c3nc4ccccc4s3)o2)s1,–,"inconclusive [inhibitor, single point]"
Cc1onc(-c2c(F)cccc2Cl)c1C(=O)NC(=S)NCc1cccnc1,–,"inconclusive [inhibitor, single point]"
COc1ccc(C2CC(=O)Oc3c(C(CCN4CCCCC4)c4ccc(N(C)C)cc4)c(OC)cc(OC)c32)cc1 (stereo not given),–,inactive
Cc1ccsc1/C=N/NC(=O)c1cccs1,–,active: 12.6 µM
O=C(Nc1ccc(C(F)(F)F)cn1)Nc1cccs1,–,"inconclusive [activator, full curve]"
Cc1ccccc1-c1cc(C(=O)Nc2sc(C(=O)OC(C)C)c(C)c2C#N)c2ccccc2n1,–,"inconclusive [inhibitor, single point]"
CC(=O)NNC(=S)Nc1cc(S(=O)(=O)N(C)C)ccc1C,inactive: 1.76%,–
CC1=NN(C(=O)c2ccc(Cn3ccc([N+](=O)[O-])n3)cc2)C(O)(C(F)(F)F)C1 (stereo not given),–,active: 12.6 µM
O=[N+]([O-])c1ccc(N2CCN(S(=O)(=O)c3ccccc3)CC2)c2cccnc12,inactive: -14.1%,–
COc1ccc(S(=O)(=O)N(C)c2ccc(C(=O)N3CCCCC3)cc2)cc1,inactive: -19.9%,–
Cc1cccc(NC(=S)NC(=O)c2ccc(Br)o2)c1C,–,"inconclusive [inhibitor, single point]"
Cc1ccc(C(=O)Nc2ccccc2OC(F)F)cc1,inactive: 17.6%,–
COC(=O)c1cnn(-c2ccccc2)c1/C=N/NC(=S)Nc1ccccc1,–,active: 3.55 µM
O=c1cc(-c2ccccc2)[nH]n1-c1nc2ccccc2s1,–,"inconclusive [inhibitor, single point]"
O=C(CN1CCN(S(=O)(=O)c2ccccc2)CC1)Nc1ccc(Cl)c(Cl)c1,–,"inconclusive [inhibitor, single point]"
CCCc1nc(SCC(=O)N2CCCc3ccccc32)c2c(=O)n(C)c(=O)n(C)c2n1,–,"inconclusive [inhibitor, single point]"
